# Laboratory results published in PubChem BioAssay AID588501 (NMMLSC, 2011).
# Screen size: about 360,000 compounds; about 420 (0.12%) were called active. Inconclusive means that the source gave no clear call. Such entries were picked first, then a sample of the others. No stated cut-off is given here; in the data, active means inhibition above about 30%; inconclusive means no clear call, values can overlap the other calls; inactive means below that.
# Molecular target: Lethal factor (Bacillus anthracis) (UniProt P15917)
# UniProt P15917, sequence (P15917 whole entry, looked up): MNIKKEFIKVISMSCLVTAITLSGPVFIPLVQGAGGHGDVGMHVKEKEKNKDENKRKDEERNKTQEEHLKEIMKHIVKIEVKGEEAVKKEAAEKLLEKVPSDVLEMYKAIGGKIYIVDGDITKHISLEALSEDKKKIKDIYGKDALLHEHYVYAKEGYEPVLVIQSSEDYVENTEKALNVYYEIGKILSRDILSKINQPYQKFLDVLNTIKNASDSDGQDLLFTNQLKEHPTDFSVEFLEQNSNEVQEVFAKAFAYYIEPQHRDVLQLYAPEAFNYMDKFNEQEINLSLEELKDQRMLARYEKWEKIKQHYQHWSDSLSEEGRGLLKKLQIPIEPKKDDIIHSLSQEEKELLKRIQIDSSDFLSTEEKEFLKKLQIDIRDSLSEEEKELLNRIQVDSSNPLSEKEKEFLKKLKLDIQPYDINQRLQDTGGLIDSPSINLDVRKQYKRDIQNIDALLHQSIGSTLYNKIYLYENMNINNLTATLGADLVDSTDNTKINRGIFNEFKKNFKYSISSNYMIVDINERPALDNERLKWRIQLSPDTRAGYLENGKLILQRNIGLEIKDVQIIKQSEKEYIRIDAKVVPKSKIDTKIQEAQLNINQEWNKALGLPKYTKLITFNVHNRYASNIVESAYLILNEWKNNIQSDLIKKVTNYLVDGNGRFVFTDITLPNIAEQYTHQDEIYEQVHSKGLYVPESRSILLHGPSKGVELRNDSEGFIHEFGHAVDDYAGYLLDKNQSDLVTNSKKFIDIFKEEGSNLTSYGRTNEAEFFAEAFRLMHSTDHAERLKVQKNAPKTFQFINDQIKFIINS
# Test: anthrax lethal factor cleavage blockers – biochemical, multiplex microsphere, MLPCN library, primary screen (AID 588501); further: plate controls were buffer without enzyme for full effect and enzyme alone for no effect
# Settings: multiplex microsphere protease cleavage assay, LF; at 10 µM; stronger effect = higher value
row,SMILES,inhibition
1,Cc1ccc(NC(=O)CN(C)C(=O)C(C)N2CCN(Cc3ccccc3C)CC2)cc1 (centres undefined),inactive: 2.3%
2,O=C(COC(=O)c1ccc(Br)o1)c1ccc(S(=O)(=O)N2CCCCC2)cc1,inactive: 3%
3,COc1ccc(-c2cc(C(=O)Nc3cccc(C(C)=O)c3)no2)cc1,inactive: 2.3%
4,O=C(CCl)N1c2ccccc2Oc2ccc3ccccc3c21,active: 34.8%
5,COc1ccc(NC(=O)CC2C(=O)NCCN2C(=O)c2ccc(N(C)C)cc2)cc1 (centres undefined),inconclusive: 12.7%
6,Cc1ccc(C(=O)N/C(=C\c2ccc(-c3ccc([N+](=O)[O-])cc3)o2)C(=O)NC2CCS(=O)(=O)C2)cc1 (centres undefined),inactive: 8.6%
7,COc1ccc(N2CCN(C(=O)COC(=O)c3c(-c4ccccc4)noc3C)CC2)cc1,inconclusive: -13.7%
8,COc1ccccc1N1CCN(Cc2ccc(OC)c(OC)c2OC)CC1,inactive: -9.6%
9,CCC(C)c1ccccc1N1CC(C(=O)N2CCN(S(=O)(=O)c3ccccc3Br)CC2)CC1=O (centres undefined),inconclusive: 1%
10,CCCOc1ccc(-c2nn(-c3ccccc3)cc2/C=C2\SC(=S)N(C3CCS(=O)(=O)C3)C2=O)cc1 (centres undefined),active: 46.6%
11,O=C(CN1C(=O)NC2(CCCCC2)C1=O)N1CCN(c2ncccn2)CC1,inconclusive: 1%
12,CCN1CCCSC1=S,inactive: -4.7%
13,COc1ccccc1OCC(=O)NCC(C)NC(=O)COc1ccccc1OC (centres undefined),inconclusive: -5.2%
14,COc1ccc(-c2csc(NC3OC(=O)c4c3ccc(OC)c4OC)n2)cc1OC (centres undefined),inconclusive: -10.3%
15,Cc1c(NS(=O)(=O)c2cccc(C(=O)NCc3ccccc3Cl)c2)c(=O)n(-c2ccccc2)n1C,inconclusive: 7.2%
16,COc1ccc(-c2nc(C#N)c(N3CCOCC3)o2)cc1OC,inactive: 1.4%
17,Cc1ccc(S(=O)(=O)NCc2ccccc2)cc1C(=O)NC1CCC(C)CC1 (centres undefined),inconclusive: -2.5%
18,CCn1c(=O)c2cc(C(=O)NC(C)C)sc2c2ccccc21,inactive: -0.2%
19,COc1ccccc1N1CCN(C(=O)c2ccc(Br)o2)CC1,inconclusive: -3.1%
20,CC(C)OC(=O)c1c2c(n3ccccc13)C(=O)c1ccccc1C2=O,active: 37.6%
21,C/C(=N/NC(=O)CNC(=O)c1ccncc1)c1ccco1,inconclusive: -8.5%
22,O=C(c1cccs1)c1ccc(-c2cccs2)s1,active: 35.2%
23,NS(=O)(=O)c1ccc(CNC(=O)c2ccccc2SCC(=O)N2CCCC2)cc1,inconclusive: 0.8%

row,SMILES,inhibition
1,CCN(CC(=O)Nc1ccccc1OC)C(=O)c1ccccc1Sc1ccccc1C#N,inconclusive: -1.9%
2,Cc1ccc(Nc2c3c(nc4ncnn24)CC(C)CC3)cc1 (centres undefined),inactive: 0.3%
3,COc1ccc(CN(C)C(=O)/C=C/[C@H]2O[C@@H](n3cc(C)c(=O)[nH]c3=O)C[C@@H]2O)cc1OC,inactive: 2.1%
4,COc1ccc(-c2c[n+]3c(n2-c2ccccc2)SCC3)cc1,inconclusive: 47%
5,C=CCNC(=S)NNC(=O)Cn1c(-c2ccccc2)cc(=O)n2ncnc12,active: 32%
6,COc1ccc(NC(=O)c2cc(-c3ccc(C)cc3)on2)cc1OC,inactive: -15.8%
7,COCCNC(=O)C1(C)CCCN(C(=O)c2ccccc2OC(F)(F)F)C1 (centres undefined),inactive: -8.6%
8,Cc1ccc(-n2nc(C)c(=O)c(-c3ccccc3)c2NC(=O)C(C)C)cc1,inconclusive: -7.6%
9,O=C(CC1CCCCC1)NCCS(=O)(=O)N1CCN(c2ccccc2)CC1,inconclusive: -2.7%
10,S=C(NCCSCc1c(Cl)cccc1Cl)Nc1ccccc1,inconclusive: -126%
11,CCn1nc(C(=O)N2CCN(Cc3nc4ccccc4s3)CC2)c2ccccc2c1=O,inactive: 0%
12,Cc1n[nH]c(=O)nc1NCc1ccccc1,inconclusive: -19.5%
13,Cc1ccc(NC(=O)CNC(=O)c2ccco2)cc1Cl,inactive: 1.2%
14,O=C(CNS(=O)(=O)c1cccs1)N1CCN(c2ccccc2F)CC1,inactive: 2.4%
15,CN(C(=O)COC(=O)C1CCN(S(=O)(=O)c2ccc3c(c2)OCCO3)CC1)C1CCS(=O)(=O)C1 (centres undefined),inconclusive: -3.3%
16,CC1CCc2c(sc(NC(=O)CSc3nc(N)cc(=O)[nH]3)c2C(N)=O)C1 (centres undefined),inconclusive: -0.7%
17,CCCCn1cnc2c(c(-c3ccccc3)c(-c3ccccc3)n2Cc2ccco2)c1=N,inconclusive: 8.7%
18,COc1ccc(-c2cc(C(F)(F)F)n3nc(C(N)=O)cc3n2)cc1,inactive: -5.2%
19,COc1ccc(CCNC(=O)C2CCN(S(=O)(=O)N3CCOCC3)CC2)cc1OC,inactive: 0.5%
20,Cc1cc(NC(=O)c2noc3c2CCCCC3)no1,inactive: -2%
21,CN1C(=O)/C(=C\c2ccc(-c3ccccc3)o2)SC1=S,active: 30.1%
22,O=C(Nc1ccc2c(c1)S(=O)(=O)N=C1CCCCCN12)c1ccccc1Cl,inactive: -0.7%
23,CCCn1c(=S)[nH]c2cc(C(=O)N3CCN(C(=O)OCC)CC3)ccc2c1=O,inactive: 0.2%

row,SMILES,inhibition
1,O=C(CCNC(=O)c1ccccc1Cl)NCc1cccnc1,inconclusive: 8.7%
2,CCOC(=O)c1c(NC(=O)Nc2ccc(Cl)cc2)sc(C)c1C,active: 41.4%
3,CC(C)Oc1ccc(S(=O)(=O)N2CCOCC2)cc1NC(=O)c1ccc(Cl)c(S(=O)(=O)N2CCOCC2)c1,inactive: 0.2%
4,O=C(NNC1CC(=O)N(c2ccccc2)C1=O)c1ccco1 (centres undefined),inactive: 1.7%
5,CCOc1ccc(C(=O)NCC(=O)OCC(=O)N(C)CC(=O)Nc2ccccc2CC)cc1OCC,inconclusive: -8%
6,O=C1CC(N2CCC(c3nc4ccccc4s3)CC2)C(=O)N1Cc1ccccc1 (centres undefined),inactive: -5.2%
7,CCN(CC)S(=O)(=O)c1ccc2c(c1)c(=O)c(C(=O)N1CCN(c3ccccc3)CC1)cn2C,inconclusive: -2.7%
8,CCN(c1ccccc1)S(=O)(=O)c1cccc(C(=O)NCc2ccncc2)c1,inconclusive: -3.9%
9,Cc1nnc(SCC(=O)Nc2sccc2C(N)=O)s1,inconclusive: 1.3%
10,CN(C(=O)COC(=O)c1cccs1)c1c(N)n(Cc2ccccc2)c(=O)[nH]c1=O,inconclusive: -0.4%
11,CCN(CC)c1ccc(/C=C/[N+](=O)[O-])cc1,active: 35.1%
12,O=C(COC(=O)c1ccc(O)cc1O)Nc1nnc(-c2ccccc2)o1,inconclusive: -5%
13,O=S(=O)(Nc1cccc2ncccc12)c1cccs1,inconclusive: -11.9%
14,Cc1ccc(S(=O)(=O)Nc2cccc(C(=O)NCC(c3ccco3)N(C)C)c2)cc1F (centres undefined),inconclusive: 0.1%
15,CS(=O)(=O)N(CC(=O)NCC1CCCO1)c1cccc([N+](=O)[O-])c1 (centres undefined),inactive: -5.1%
16,COc1ccc(-c2csc(NC(=O)CSc3nc(C)cs3)n2)cc1,inconclusive: -17.9%
17,CCCCn1c(N)c(N(CCC(C)C)C(=O)c2ccc(C)c(S(=O)(=O)N3CCOCC3)c2)c(=O)[nH]c1=O,inconclusive: -1.5%
18,COc1ccc(C(=O)Nc2ccc(OCC(=O)N3CCOCC3)cc2)c(OC)c1OC,inconclusive: -1.9%
19,CC(C)N(C)c1ncnc2c1ncn2[C@H]1CN(C2CCCC2)C[C@@H](CO)O1,inactive: 2%
20,O=C(Nc1nc2ccsc2c(=O)s1)c1ccco1,inconclusive: -26.4%
21,CN(CC(=O)Nc1cccc(F)c1)C(=O)C1CSC2(C)CCC(=O)N12 (centres undefined),inconclusive: 1%
22,CCOc1ccc(OCCC(=O)OCC(=O)NNC(=O)c2ccccc2)cc1,inconclusive: -8.5%
23,O=C(CSc1ccccn1)Nc1ccc(Cl)cn1,inactive: 0.4%

row,SMILES,inhibition
1,CC1(C)C(C(=O)N2CCN(C(=O)c3ccccc3)CC2)C1(C)C,inactive: -3.9%
2,COc1ccc(NC(=O)CN(C)C(=O)c2cc(-c3cccs3)nn2-c2ccccc2)cc1,inconclusive: 1.7%
3,CCS(=O)(=O)n1nc(-c2ccccc2)nc1NCc1ccco1,inconclusive: -34.1%
4,O=C(CCNC(=O)c1ccccc1)NCCc1ccc(Cl)cc1,active: 37.6%
5,CCOc1ccc2nc(NC(=O)C3(C)CC3(Br)Br)sc2c1 (centres undefined),active: 36.1%
6,CN(C)CCCOc1ccc(-c2ccc3nncn3c2)cn1,inactive: -2.8%
7,COc1cc(OC)cc(C(=O)Nn2cnnc2)c1,active: 37.4%
8,CCOC(=O)c1c(/N=C/c2c(O)n(-c3ccc(F)cc3)c(=S)[nH]c2=O)sc2c1CCCC2,active: 56.4%
9,COc1ccc(CCNc2nc(-c3sc(C)nc3C)cs2)cc1OC,inconclusive: -3.7%
10,CC(=NNC(=S)N1CCCCCC1)c1ccccn1,active: 50%
11,O=C(COc1ccc(F)cc1Cl)Nc1ccc(N2CCOCC2)cc1N1CCOCC1,inconclusive: -1.1%
12,Cc1cc(C)n(C2CCCCC2OC(=O)CCc2ccccc2)n1 (centres undefined),active: 32.8%
13,CC(=O)Nc1cccc(NC(=O)C(=O)NCC(c2ccco2)N2CCc3ccccc32)c1 (centres undefined),inconclusive: -1.2%
14,O=C(COC(=O)COc1ccc(Cl)cc1Br)NCCC1=CCCCC1,inactive: 0.6%
15,COc1cc(C(C)=O)ccc1OCC(=O)Nc1ccccc1N1CCCCC1,inconclusive: 1.1%
16,O=C(NCC1CCCO1)c1cc2n(n1)C(C(F)(F)F)CC(c1ccc(F)cc1)N2 (centres undefined),inconclusive: 3.6%
17,COc1ccc(OC)c(NC(=O)CSc2nccn2Cc2ccco2)c1,inactive: 0.3%
18,CC(C)(C)c1ccc(OCCC(=O)OCC(=O)NC(=O)NC2CCCC2)cc1,inconclusive: -4.5%
19,CCOc1ccc(OCCCC(=O)N(C)CC(=O)Nc2ccc(N3CCOCC3)cc2)cc1,inconclusive: 5.8%
20,CCOc1ccccc1NC(=O)CSc1nnc(Cc2ccc(OC)cc2)c(=O)n1N,inconclusive: 4%
